Data published in patent publication US20210102215A1, “TREATMENT AND PREVENTION OF VIRAL INFECTION” (priority 2016, published 2021).

Test system: HCVpp expressing patient derived envelope glycoproteins
Assay: Entry of HCVpp expressing patient derived envelope glycoproteins into Huh-7 cells
Settings: Huh-7, 20 μM, 24 h, infectivity 24 h later (FIG. 9)
Excerpt: To evaluate the activity of REV-ERB agonists against a wider spectrum of HCV strains, we used lentiviral pseudotypes expressing primary envelope glycoproteins cloned from patients with acute HCV infection. […] Luciferase reporter pseudoparticles expressing HCV envelope glycoproteins (HCVpp), or no-glycoprotein controls, were generated in 293T cells using a plasmid encoding a HIV provirus expressing luciferase and viral envelope glycoproteins from lab strains H77 and 1A38 and HCV patient derived clones.

Row | Compound | HCV entry of lab strain and patient derived HCVpp
1 | CC(C)(C)OC(=O)CN(Cc1ccc(Cl)cc1)Cc1ccc([N+](=O)[O-])s1 [GSK4112] | inhibit HCV entry not only of lab strains but also a wide range of patient derived HCV
2 | CCOC(=O)N1CCC(CN(Cc2ccc(Cl)cc2)Cc2ccc([N+](=O)[O-])s2)C1 (centres unmarked) [SR9009] | inhibit HCV entry not only of lab strains but also a wide range of patient derived HCV
